According to PubChem BioAssay AID504832 (National Center for Advancing Translational Sciences (NCATS), 2011):
“And” between values parts separate entries of the source, which are not always exact repeats. Equal entries are not always repeated. Among all 310,000 compounds or so, about 18,000 (5.8%) were called active. The shares of active, inactive and inconclusive entries below differ from those in the screen. The call rests on the fitted dose curve; in most records, active means well fitted inhibition curve with a large enough effect; inconclusive means small, poorly fitted or top-dose-only effect, or another doubt; inactive means no such curve, though single readings can be large or run the other way. Potencies of inconclusive entries are left out as doubtful fits.

Test: Primary qHTS for delayed death inhibitors of the malarial parasite plastid, 48 hour incubation
Conditions: P. falciparum luciferase growth in erythrocytes; series mostly up to 28.7 µM; activity change, negative = inhibition: at the top concentration
Method in brief: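 Growth was read as firefly luciferase luminescence after a 48 h, 37 C, 5% CO2 exposure of compounds to reporter-bearing P. falciparum cultures (0.1% parasitemia, 2% hematocrit final) in Albumax-supplemented RPMI 1640.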
On the % scale 0 is the no-effect control and ±100 the full control effect; potency means the concentration at half of the fitted maximal effect; tags describe the fitted curve by direction and shape.

Structure (SMILES)	Potency	activity change, negative = inhibition
O=C(Nc1nc2c(ccc3ccccc32)s1)c1cc([N+](=O)[O-])ccc1N1CCOCC1	inconclusive [inhibitor, single point]	–
CC(C)N1CCC(N2CCN(Cc3cc4c(cc3Cl)OCO4)CC2CCO)CC1 (stereo not given)	–	inactive: -13.1%
COc1ccc(OCCn2cnc3ccccc32)cc1	–	inactive: -0.765%
COc1cccc(NC(=O)c2cc([N+](=O)[O-])ccc2NC(=O)CNCC2CCCO2)c1 (stereo not given)	inconclusive [inhibitor, full curve]	–
CC1CCC(C(C)C)C(OC(=O)Cn2c(-c3ccccc3)[n+](C)c3ccccc32)C1 (stereo not given)	active: 370 nM and active: 465 nM	–
CC1CCCC(NC(=O)c2cccc(S(=O)(=O)N3CCCCC3)c2)C1C (stereo not given)	inconclusive [inhibitor, partial curve, poor fit]	–
O=[N+]([O-])c1ccc(/C=N/Nc2nc(NCc3ccccc3)nc(N3CCOCC3)n2)cc1	active: 13.1 µM	–
COc1ccc([C@H]2CC(=O)C=C(C#CC(C)(C)C)C2)cc1	inconclusive [inhibitor, single point]	–
Cc1nnc(NC(=O)CSc2ccc3nnc(-c4ccccn4)n3n2)s1	inconclusive [inhibitor, single point]	–
Cc1cnc(NC(=O)CSc2nnc(-c3ccccc3)o2)s1	–	inactive: 130%
COc1cc(/C=C2\SC(=Nc3ccccc3)N(CCc3c[nH]c4ccccc34)C2=O)ccc1OC(C)C(=O)O (stereo not given)	active: 10.4 µM	–
COCCN(CC(=O)Nc1ccccc1C(F)(F)F)C(=O)/C=C/c1ccc2ccccc2n1	inconclusive [inhibitor, single point]	–
O=C(c1ccccc1)c1ccc(N2CCOCC2)c(NC(=O)c2ccco2)c1	inconclusive [inhibitor, single point]	–
CCc1ccc(C(=O)NC(CCSC)C(=O)OC)cc1 (stereo not given)	inconclusive [inhibitor, single point]	–
CC(C)Cn1c(=O)c(C(=O)N/N=C/c2cccc(F)c2)c(O)c2ccccc21	–	inactive: -2.52%
CCOC(=O)C1=C(C)N=C(/N=C/N(C)C)SC1c1ccccc1 (stereo not given)	inconclusive [inhibitor, full curve, poor fit]	–
O=C(NO)c1ccc(OC(F)F)cc1	active: 10.4 µM	–
O=C1N/C(=N\S(=O)(=O)c2ccccc2)S/C1=C\c1cc([N+](=O)[O-])ccc1O	–	inactive: 17%
CC1=C(C(=O)OC(C)C)C(c2ccccc2)NC(=S)N1C (stereo not given)	inconclusive [inhibitor, single point]	–
Cc1ccccc1-n1nc(-c2ccc(N)cc2)cc1N	inconclusive [inhibitor, partial curve]	–
Cc1nn(C)cc1C(C)NC(=O)c1cc(COc2ccc(F)c(F)c2)on1 (stereo not given)	inconclusive [inhibitor, single point]	–
c1ccc2c(NC3C4CC5CC(C4)CC3C5)nc(N3CCOCC3)nc2c1 (stereo not given)	inconclusive [inhibitor, partial curve]	–
COCCn1c(C)cc(C2=NNC(=Nc3ccccc3)SC2)c1C	inconclusive [inhibitor, single point]	–
Cc1cc(/C=N/O)c(C)n1-c1ccc(Br)cc1	inconclusive [inhibitor, partial curve]	–

Structure (SMILES)	Potency	activity change, negative = inhibition
CCOC(=O)c1cnn2c(N)c(C#N)cnc12	–	inactive: 37.3% [at 1.15 µM]
Cc1ccccc1Nc1c(F)c(F)c(F)c(F)c1C(=O)O	–	inactive: -3.14%
CCc1ccc(S(=O)(=O)N/N=C\c2ccc([N+](=O)[O-])o2)cc1	–	inactive: 25.8%
COC(=O)c1ccccc1NC(=O)CN(c1cc(OC)ccc1OC)S(C)(=O)=O	inconclusive [inhibitor, single point]	–
CCn1c(SCC(=O)Nc2cc3oc4ccccc4c3cc2OC)nnc1-c1cccs1	inconclusive [inhibitor, single point]	–
C/C(=C\C(=O)OCCCCCCCCC(=O)O)C[C@@H]1OC[C@H](C[C@@H]2O[C@H]2[C@@H](C)[C@H](C)O)[C@@H](O)[C@H]1O	active: 0.19 µM	–
Cc1ccc(NC(=O)c2cc3ccccc3o2)cc1Cl	–	inactive: 103%
CCCC[n+]1c(-c2ccc(Cl)cc2Cl)csc1Nc1ccccc1	active: 3.7 µM	–
Cc1cc(F)ccc1S(=O)(=O)N1CCCOC1CNC(=O)C(=O)NCCc1c[nH]c2ccccc12 (stereo not given)	inconclusive [inhibitor, partial curve]	–
CCC(=O)N1N=C(c2ccc(Cl)cc2)CC1c1ccco1 (stereo not given)	–	inactive: 1.92%
CCOC(=O)N1CCc2c(sc3c2c(=O)n(-c2ccc(CC)cc2)c(=O)n3CC(=O)NCC2CCCO2)C1 (stereo not given)	active: 5.22 µM	–
CC1(C)Cc2c(sc3c2c(=N)n(Cc2ccco2)c(=O)n3CC(=O)Nc2cccc(Cl)c2)CO1	inconclusive [inhibitor, partial curve, poor fit]	–
O=C(COC(=O)CCC(=O)c1ccccc1)NCCc1ccccc1	–	inactive: 40.6%
CCOC(=O)CC(=O)CSc1ncnc2c1nnn2-c1ccc(OC)cc1	inconclusive [inhibitor, full curve, poor fit]	–
Cc1ccc(NS(=O)(=O)c2ccc(CCC(=O)NCc3ccccn3)cc2)cc1	inconclusive [inhibitor, partial curve]	–
COc1ccc(CC(=O)Nc2nnc(C(C)C)s2)cc1OC	inconclusive [inhibitor, full curve, poor fit]	–
CCOc1cc(-c2c(C)c(CC)nc(N)c2C#N)ccc1O	–	inactive: -7.16%
CCCCCCC1NC(C(=O)O)CS1 (stereo not given)	–	inactive: 18.6%
O=C(CSc1ncnc2sc3c(c12)CCCC3)N1CCC(c2noc3ccc(F)cc23)CC1	–	inactive: 8.84%
COc1ccc(N(CC(=O)Nc2ccc(Cc3ccncc3)cc2)S(=O)(=O)c2ccccc2)cc1	active: 13.1 µM	–
NNC(=O)c1cccn(Cc2cccc(C(F)(F)F)c2)c1=O	inconclusive [inhibitor, partial curve]	–
COc1ccc(C(=O)NCC(c2cccs2)N2CCc3ccccc32)c(OC)c1 (stereo not given)	active: 10.4 µM	–
CCN(CC)CCN1C(=O)C(=O)/C(=C(/O)c2ccc(OCC(C)C)cc2)C1c1ccncc1 (stereo not given)	–	inactive: -11.9%
CC(=O)CSc1cc(-c2ccccc2)nc2ncnn12	–	inactive: 4.54%

Structure (SMILES)	Potency	activity change, negative = inhibition
CN(Cc1ccon1)Cc1cn(C)nc1-c1ccc2c(c1)OCCO2	–	inactive: 19.6%
O=C(CN(Cc1ccccc1)S(=O)(=O)c1ccc2c(c1)OCCO2)N/N=C/c1cccc(Br)c1	inconclusive [inhibitor, partial curve]	–
C/C(=N\n1nnnc1Nc1ccccc1)c1ccc(N)cc1	–	inactive: 15.6%
O=C(COc1ccccc1)NCc1cccs1	inconclusive [inhibitor, single point]	–
COc1cccc(CNC(=O)Cn2ccc3cc(S(=O)(=O)N4CCCCCC4)ccc32)c1OC	inconclusive [inhibitor, single point]	–
COc1ccc(S(=O)(=O)N2CC(C)N(C(=O)N3CCOCC3)C2)cc1 (stereo not given)	–	inactive: 17.3%
Nc1c(C(=O)NC2CCCC2)sc2nc(-c3cccs3)ccc12	–	inactive: 21.1%
COc1ccc(C(=O)NC(=S)NCc2cccnc2)cc1OC	inconclusive [inhibitor, single point]	–
Cc1ccc(C)c(NC(=O)C2Cc3ccccc3CN2C(=O)OCc2ccccc2)c1 (stereo not given)	inconclusive [inhibitor, single point]	–
CCCC(=O)N1CC(=O)Nc2ccc(C)cc2C1c1ccc(F)cc1 (stereo not given)	inconclusive [inhibitor, full curve]	–
CC1(C)CC(=O)c2cc(OCC(=O)N3CCCCCC3)ccc2O1	inconclusive [inhibitor, partial curve]	–
COc1ccc(OC)c(NC(=O)c2oc3c(c2C)C(O)CC(C)(C)C3)c1 (stereo not given)	inconclusive [inhibitor, partial curve]	–
COc1ccc(N2CCN(C(CNC(=O)CC(C)(C)C)c3ccc4c(c3)OCO4)CC2)cc1 (stereo not given)	inconclusive [inhibitor, full curve]	–
COCCNc1ccc([N+](=O)[O-])cc1C(=O)NC1CCCc2ccccc21 (stereo not given)	inconclusive [inhibitor, single point]	–
O=C(COC(=O)C1CC1)NCCNC(=O)COC(=O)C1CC1	–	inactive: 11.4%
CC(OC(=O)c1ccc2c(c1)OCCO2)C(=O)NC1CCCCC1C (stereo not given)	–	inactive: -23.7%
CCCN1CCN(C(=O)C2CCN(S(=O)(=O)c3c(C)noc3/C=C/c3ccc(C)cc3)CC2)CC1	inconclusive [inhibitor, partial curve]	–
Cc1ccc2cc(C)c3nnc(SCc4ccc(C(=O)O)cc4)n3c2c1C	inconclusive [inhibitor, full curve]	–
O=C(Nc1nc(-c2ccccc2)cs1)C1CCCCN1S(=O)(=O)c1ccc(Cl)cc1 (stereo not given)	inconclusive [inhibitor, single point]	–
CCOC(=O)C(Cc1ccc(NC(=O)/C(=C/c2ccccc2)NC(=O)c2ccccc2)cc1)N1C(=O)c2ccccc2C1=O (stereo not given)	inconclusive [inhibitor, single point]	–
COc1ccc(-n2nc(C(=O)NCC(=O)N3CCN(Cc4ccc5c(c4)OCO5)CC3)c3ccccc3c2=O)cc1OC	inconclusive [inhibitor, partial curve]	–
NC(=O)CC(NC(=O)Cc1ccc(Br)cc1)c1ccc(NCCc2cccc(F)c2)c([N+](=O)[O-])c1 (stereo not given)	inconclusive [inhibitor, partial curve]	–
